Measurements as given in PubChem BioAssay AID686979 (National Center for Advancing Translational Sciences (NCATS), 2013).
Values joined by “and” are separate entries in the source; they are usually repeats but may differ in a detail not shown here. Identical values can stand only once. The campaign covered roughly 420,000 compounds. About 50,000 (12%) were called active. The shares of active, inactive and inconclusive entries below differ from those in the screen. Calls come from the whole dose curve; as a rule, active = well fitted inhibition curve with a large enough effect; inconclusive = small, poorly fitted or top-dose-only effect; inactive = flat fitted curve, though single readings scatter. Potencies beside an inconclusive call are fits to weak or partial responses and may not hold up.

Assay: qHTS for Inhibitors of human tyrosyl-DNA phosphodiesterase 1 (TDP1): qHTS in cells in presence of CPT; note: nearly all actives have a fitted effect of over 55% in size
Conditions: chicken DT40 Tdp1-/-;hTDP1 cells + 20 nM CPT, ATP luminescence, 48 h; activity change, negative = growth inhibition: at 46.2 µM (top of the series)
Outline: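 Cell growth measured by CellTiter-Glo luminescence after a minimum 48 h, 37 C compound exposure with 20 nM CPT in Tdp1-knockout DT40 cells stably expressing hTDP1, seeded 400/well; qHTS titration format.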
% is set by controls: 0 for no effect and ±100 for the full control effect; potency is the fitted concentration of half-maximal effect; tags give direction and shape of the fitted curve.

Compound | Potency | activity change, negative = growth inhibition
C#CCNC(=O)C[C@@H]1C[C@@]2(C(=O)OCC)CCC=C2N(Cc2ccc(Cl)cc2Cl)C1=O | inconclusive: 23.1 µM [inhibitor, single point] | 
Cc1oc(C)c2c(=O)ccc3c(c12)OC(N)=C(C#N)C3c1ccc(F)cc1 (configuration not stated) | inconclusive: 18.4 µM [inhibitor, single point] | 
O=C(O)C(=Cc1ccccc1Cl)c1ccccc1 | inconclusive: 29.1 µM [inhibitor, single point] | 
COc1ccc(S(=O)(=O)N2CCCCCC2)cc1C(=O)N(C)Cc1c(F)cccc1Cl | inconclusive: 23.1 µM [inhibitor, single point] | 
CC1=NN(c2ccccc2)C(=O)C1C(=O)C(=O)Nc1ccc(F)cc1 (configuration not stated) | inconclusive: 29.1 µM [inhibitor, single point] | 
Nc1sc(-c2ccccc2)cc1-c1n[nH]c(=S)n1C1CCCCC1 | active: 16.4 µM | 
Cn1c(=O)c2c(nc(Oc3ccccc3Cl)n2C)n(C)c1=O | inconclusive: 10.3 µM [inhibitor, partial curve] | 
N#Cc1ccccc1S(=O)(=O)N1CCC(C(=O)Nc2cccc(C(=O)NC3CC3)c2)CC1 |  | inactive: -2.06%
COCCNC(=S)NNC(=O)CSCc1ccc(Cl)cc1Cl |  | inactive: 12.4%
CC1CCN(CCCCOc2ccccc2F)CC1 | inconclusive: 29.1 µM [inhibitor, single point] | 
COC(=O)C1CCN(C(=O)c2ccc(OC)c(S(=O)(=O)N3CCCc4ccccc43)c2)CC1 | inconclusive: 25.9 µM [inhibitor, single point] | 
O=C1OC(Nc2nc(-c3ccc(F)cc3)cs2)c2ccccc21 (configuration not stated) | active: 14.6 µM | 
O=C(c1ccc2c(c1)N(Cc1cccc(Cl)c1)C(=O)c1ccccc1S2)N1CCOCC1 | active: 18.4 µM | 
Cc1ccc2[nH]c(=O)c3cc(C(=O)NCCc4ccc(Cl)cc4)sc3c2c1 | inconclusive: 18.4 µM [inhibitor, single point] | 
O=C(NCc1ccc(Cl)cc1)C1CCCN(C(=O)c2ccc(Cl)cc2)C1 (configuration not stated) | inconclusive: 29.1 µM [inhibitor, single point] | 
CCCC(=O)Nc1cc(-c2nn(C)c(=O)c3ccccc23)ccc1OC |  | inconclusive: -32.3% [inhibitor]
O=C(Nc1ccc(Br)cc1)c1cccc(N2C(=O)C3C4CCC(C4)C3C2=O)c1 (configuration not stated) | inconclusive: 29.1 µM [inhibitor, single point] | 
Cc1cc(C)n(-c2nc(N(C)C)nc(N(C)C)n2)n1 | inconclusive: 29.1 µM [inhibitor, single point] and inconclusive: 35.5 µM [inhibitor, single point] | 
CCCCNC(=O)CN1C(=O)CSc2ccc(S(=O)(=O)N3CCOCC3)cc21 |  | inactive: -1.94%
COCCCNC(=S)N/N=C/c1cccc(OC)c1O | active: 0.82 µM | 
Cc1ccc(C(=O)COc2cccc(NC(=O)c3ccco3)c2)cc1 | inconclusive: 20.6 µM [inhibitor, single point] | 

Compound | Potency | activity change, negative = growth inhibition
CCOc1ccccc1NC(=O)C12CC3CC(C1)CC(c1ccc(C)cc1)(C3)C2 | inconclusive: 29.1 µM [inhibitor, single point] | 
Cc1ccc2oc(=O)c3cc(C(=O)NCCN4CCc5ccccc5C4)sc3c2c1 | inconclusive: 29.1 µM [inhibitor, single point] | 
CCCn1nc(C(=O)N2CCN(S(=O)(=O)c3ccc(C)c(C)c3)CC2)c2ccccc2c1=O | inconclusive: 23.1 µM [inhibitor, single point] | 
Cc1cccc(C(=O)OCC(=O)Nc2ccc3c(c2)OCCO3)c1 | inconclusive: 20.6 µM [inhibitor, single point] | 
CCN(C[C@H]1N[C@@](CC)(C(=O)OC)[C@H]2C(=O)N(Cc3ccccc3)C(=O)[C@@H]12)S(=O)(=O)c1ccc(C(F)(F)F)cc1 | inconclusive: 18.4 µM [inhibitor, single point] | 
CC1=C(C(=O)Nc2ccc(C)cc2C)C(c2ccccc2F)n2nc(SCC(=O)c3ccc(C)cc3)nc2N1 (configuration not stated) | active: 18.4 µM | 
CCOc1ccc(N/C(N)=N/c2nc(C)cc(C)n2)cc1 | active: 20.6 µM | 
O=S(=O)(Nc1ccc(-c2ccc(N3CCCC3)nn2)cc1)c1cc(F)ccc1F | inconclusive: 29.1 µM [inhibitor, single point] | 
Cc1ccc(NC(=S)N2CCN(c3ccccc3F)CC2)c(C)c1 | inconclusive: 18.4 µM [inhibitor, single point] | 
NC(=O)c1ccc(NC(=O)CCCNC(=O)c2ccc(Cl)cc2)cc1 |  | inactive: 0.786%
CC(C)Oc1ccccc1/C=N/NC(=O)c1ccccc1Cl |  | inactive: -1.95%
CN1CCN(C(CNC(=O)C(=O)Nc2cccc(Cl)c2)c2ccc3c(c2)OCO3)CC1 (configuration not stated) | inconclusive: 29.1 µM [inhibitor, single point] | 
CCCn1c(=N)c(S(=O)(=O)c2ccc(F)cc2)cc2c(=O)n3cccc(C)c3nc21 | inconclusive: 29.1 µM [inhibitor, single point] | 
Cc1ccc2nc3c(c(Nc4ccc(O)cc4)c2c1)CCC3 | inconclusive: 29.1 µM [inhibitor, partial curve] | 
Cc1ccc(Cl)c(OCCCCN(C)Cc2ccccc2)c1 | inconclusive: 18.4 µM [inhibitor, single point] | 
CN(C)CCn1c(COc2ccccc2)nc2ccccc21 | inconclusive: 29.1 µM [inhibitor, single point] | 
CCOC(=O)/C(C#N)=C1\CC2CCC1(C)C2(C)C (configuration not stated) |  | inactive: -26.5%
CCOC(=O)c1cc2c(c(CSc3nc4ccccc4c(=O)n3Cc3ccco3)c1)OCOC2 | inconclusive: 16.4 µM [inhibitor, partial curve] | 
Oc1ccc(/C=N\Nc2cc(N3CCOCC3)nc(N3CCOCC3)n2)c(O)c1 | active: 20.6 µM | 
COc1ccc2[nH]c3c(=O)n(Cc4ccc(C(=O)N5CCC(C(N)=O)CC5)cc4)c(=S)[nH]c3c2c1 | inconclusive: 23.1 µM [inhibitor, single point] | 
CCOC(=O)c1c(C)[nH]c(C(=O)COc2ccc3ccc(=O)oc3c2)c1C | inconclusive: 16.4 µM [inhibitor, single point] | 
